The supplement of paper PMC11417369
Some of the results follow.

System: PfHDP1 homeodomain (GST-tagged)
Experiment: gcPBM binding intensity (ln(normalized median fluorescence intensity)); higher = stronger DNA binding
Method in brief: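 Alexa488 anti-GST antibody, scanned at 488 nm, detected GST-tagged P. falciparum DNA-binding domains that had been expressed in E. coli and incubated for 1 h on an Agilent 4 × 180k array. The array carried primer-extended double-stranded 36-bp intergenic genomic probes and negative controls. Binding intensity is the highest Masliner-normalised natural-log median intensity across replicate spots of either orientation of each probe.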

Sequence	gcPBM binding intensity (ln)
TTCAATAGTAAGTATACACACATATATATATATAAA [CACACA_site2687]	6.83
TAATTCGCAAAAGAAAGAAATTAAGAAAAAGAAAAA [XGTACX_negctrl_site614]	5.89
TTTTTAAAAATATACACACACAGATATTATAGATAT [CACACA_site6511]	6.89
TTTCTTTTTTTTTTTTCATTGATCCATTTATGATTA [TGCATGCA_negctrl_site225]	6.39
TTATAGGTTCTATACATATATTTATATATGTACAGA [CACACA_negctrl_site60]	6.02
CAAGCTATGTATTCTACACACACATACACCCATATA [CACACA_site9133]	7.22
ATATATATAATATAATGTACGTATAATAATATGAGA [XGTACX_site2282]	6.76
ATATGTAAATAAATATGTACTCATTTATTATTTTAT [XGTACX_site8748]	6.36
CGTTATATATATAAAAGTACAAAAATTAAACATTCC [XGTACX_site4568]	6.47
ATATGTATATTTTTTTGTACGTATTTATGTGTGTGT [XGTACX_site2093]	6.72
ATATATACAAGTATTTTTTTTTCAAACATTATTTTT [CACACA_negctrl_site1808]	6.26
TAAAAGGTGTATATAATACACACGTGGGATTAGAAT [CACACA_site610]	6.89
ATATATATATATATATGTACATAATAATATATATTA [XGTACX_site111]	9.27
ATATGTTATATGTAATGTACTTTTGATGTATATATT [XGTACX_site8615]	6.62
AAAATATTATAAATTTGTACTTATAAATATTGTATA [XGTACX_site8165]	6.23
TATATAAAGCATTGTAGTACTACCAATATTTTTTTT [XGTACX_site3523]	6.63
AAAAAATATACATATACACACATATGTATATAGAAT [CACACA_site2170]	6.33
AAAATAAACAATGAACAATAAACAATGAACAATGAA [CACACA_negctrl_site1194]	6.47
TAATAAATAAAATATGCACACAAATATAGGAAACAA [CACACA_site8820]	9.13
AACATGAAAATATATGCATTTGTATATATATATATA [TGCATGCA_negctrl_site16]	9.4
TATTGTAATATTAGCACACATTACCTCACTACAAAT [CACACA_site5419]	7.61
AAAATACTAGATAGGGGAAAAAAAAAAAAAAAAAAA [CACACA_negctrl_site1732]	6.26

Sequence	gcPBM binding intensity (ln)
ATAAATGATAAAATTGCATGTGAATGTGAAAATATT [TGCATGCA_site251]	6.85
AAAGCACCCATGCACACACACAAAGGAAAAGAAAAA [CACACA_site6249]	8.98
AATAAAACCCCGAAATCACACATTAAATGAAAAATA [CACACA_site4732]	7.29
TGGGAAAATAATATTTATTTTATATATAAATATATA [CACACA_negctrl_site121]	6.35
AAAAAAAAAAAAGATTGTACAGAATACTTTTAAAAT [XGTACX_site3576]	6.37
AAGTTAATGAAAAAATGTACCCAGAGTATTTTAAAA [XGTACX_site2997]	6.47
TAAAATAAAACAAACACACACACACGGACACAAAAA [CACACA_site7754]	7.04
TTTTTTTTTTATTTTGCACACTTCTAATTTAGTTCT [CACACA_site5828]	10.7
ATATAAATAAAATATACACACATACTGTTCATTTAA [CACACA_site7880]	6.46
TCCATATATTTTAAAAGTACACATAAAAATTATTTA [XGTACX_site8127]	6.32
AATGGAAAAATAGGCACACACACATATATACATATA [CACACA_site1298]	6.74
TTGTTTTTCTTTGAATGTACTTAATGATTTCCAATT [XGTACX_site2499]	6.44
TTTATTTTGATTTAATGTACAAATAGTAAAACAAAA [XGTACX_site4789]	6.55
CTATAACCTCTGTTCACACATATATCATAATTTACA [CACACA_site5446]	6.84
ACATTATATCTAAGTACACACATTAATTTTTTTTTT [CACACA_site7850]	6.78
TATTTAAAAGCATATACACACAACTGGAATGAAAAG [CACACA_site6128]	7.18
GTTTCAAAATTAAACACACACAAAAAAAAAAAAAAA [CACACA_site2680]	6.25
TATTATATCTTTATTATTCATCTAAAATTTGTATTT [TGCATGCA_negctrl_site233]	6.21
ATCATATATGTTATTACACACGTTATGTTATTATAA [CACACA_site2712]	6.88
TATAATTTAGCTTGTGCATGCAGGTGCTACATTTGT [TGCATGCA_site217]	8.63
GTGCATAGATGATATACACACAATATAATAGTATGT [CACACA_site5373]	6.82
TTAATTTCAAGTAGAAGTACTTTTATGATTGTGAGG [XGTACX_site1247]	6.14

Sequence	gcPBM binding intensity (ln)
TATATAATATATATATGTACACATATACATTTTTAT [XGTACX_site2832]	6.56
TTTTCGGATAATAATTGTACGAAACATTTAAAAAAA [XGTACX_site8898]	6.13
TTGTAAGAAAAACACACACACACATATATATATATA [CACACA_site795]	9.39
ACTCAAAATTATAATTGTACAAATGCTTTGTTTAAT [XGTACX_site3437]	6.95
TAAATAGTTATAAAAGTGCAAAAAAAAAAAAAAAAA [GTGCAC_site9550]	8
AATTTAAAAGAAAAAGAAAAATAATAAACAGAAGCA [XGTACX_negctrl_site503]	6.53
TTGATTTACTATAGATGTACGTAAAATATAAATAAA [XGTACX_site8256]	6.52
ATAAAACAAAAATATAAACACACATACATTGGTTTT [CACACA_site8809]	6.5
ATAAAAAATAAATATATACATACATACATACATATA [XGTACX_negctrl_site507]	6.12
TTTTCAAAAATATACACACACATAAATATAGGTATA [CACACA_site6506]	6.41
AGATACTTTCCTCAAACACACAAAACTATACAACAA [CACACA_site1474]	6.79
GTTAGCTCGTTCGGAGCACACACATATATATATATA [CACACA_site8595]	9.24
ATATTCTTCTAAAGGCGTACATCTACATTTATGAAA [XGTACX_site2145]	6.28
ATTCAGTTCTATAATACACACATATATTGACATTAT [CACACA_site7309]	7.05
TTTTTTCTTTCTTTCAAACACACATTAATTTTATTC [CACACA_site2733]	6.56
TTTTTTTTTTTTTGGTGTACTTTTTTTAGAACGCAA [XGTACX_site4207]	6.26
AAAAATGAAAGGTGTACACATACAAACATAGAAAGA [CACACA_site5020]	7.92
AAAATTTATATAGGCACACAAATAAATTAATACATA [CACACA_site1418]	6.57
ATATTAGAAATATGAATAGAAAGAATATATAAGTAT [CACACA_negctrl_site682]	6.91
ATTCTACACCCACATACACACATATATATATATATA [CACACA_site3426]	9.38
TGTTCAAATTTATTCGATCTTTATATTTAATAAAAC [CACACA_negctrl_site781]	6.08
AATATTTATGTGAAGACACACAACTGTTTATTATAT [CACACA_site3447]	6.42

Sequence	gcPBM binding intensity (ln)
TTACAACAGAATGGTATTTTTTTATTTTAAAGAAAA [TGCATGCA_negctrl_site230]	5.77
ATCCTACTATGTTATACACACAATTACTTTTTTCTC [CACACA_site3712]	7.42
ATATGTAAAACTTCAAAAAAATATATTTTATGACGA [GTGCAC_negctrl_site324]	6.41
ATATATAAAATATACACACATACTGTTCATTTAAAG [CACACA_site4169]	6.67
TACTACTATCTATATTGTACAAAAGGTGCCTACAAA [XGTACX_site4267]	6.69
ATTTATATATCGCCCACACACATGTGATTATTTATA [CACACA_site6905]	7
AAAAAAAATTATATATGTACTTATTAATCCTTATAT [XGTACX_site1389]	6.02
TATTTCAAAAAAAAAAAAAATAAAAAACAACAACAA [CACACA_negctrl_site893]	6.8
TACAAGTTTTTAAAGTGTACCAAAAAAAAAGAATAA [XGTACX_site979]	6.49
TCTATTCAAAATAAAAGTACTAGCATGTGAATTGTT [XGTACX_site5530]	6.56
TTCATTTATTTACTTACACACTTTATATATGTGGTT [CACACA_site4901]	6.88
AGTTCTTCGTACCAAAAAACGGCACGCATATGTATA [TGCATGCA_negctrl_site469]	5.96
TGTATTCATACATGCACACGTACATATTTAAATATA [CACACA_site3926]	8.39
AATTATATTCTATTCACACATATTCCAACCTCTTTT [CACACA_site4670]	6.65
TGTATGTTGTAAAATTGTACATATATATTATATTTA [XGTACX_site4883]	6.45
ATGAATATAATAAAGAAACACACGTATACATAATGA [CACACA_site1355]	6.79
AAAAGATAATTATGCACACACACACCCAGACACAAC [CACACA_site5428]	10.4
TTTGATGGTACACGTACACACCTTGCAAATATTTTT [CACACA_site4645]	7.13
TGAAAGAACCTGATTACACACATAAATTATATATAT [CACACA_site26]	6.49
TATTTATTGTGATACTTATATTATTTTATGATTAAA [CACACA_negctrl_site901]	6.27
AGAGAGATGACAAAAAGATGAATAACGTTAAGGGAT [XGTACX_negctrl_site120]	7.4
